Measurements published in PubChem BioAssay AID686978 (National Center for Advancing Translational Sciences (NCATS), 2013).
Out of some 420,000 compounds screened, about 64,000 (15%) were called active. Inconclusive means that the source gave no clear call. Such entries were picked first, then a sample of the others. Calls follow the shape of the dose curve; as a rule, active = well fitted inhibition curve with a large enough effect; inconclusive = small, poorly fitted or top-dose-only effect; inactive = flat fitted curve, though single readings scatter. No potency is given beside an inconclusive call; the fits are too rough.

Assay: qHTS for Inhibitors of human tyrosyl-DNA phosphodiesterase 1 (TDP1): qHTS in cells in absence of CPT; also: nearly all actives have a fitted effect of over 55% in size
Conditions: DT40 Tdp1-/- hTDP1 cells, no CPT, ATP luminescence, 48 h; activity change, negative = growth inhibition: at 46.2 µM (top of the series) unless noted
Summary of the method: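 Growth kinetics read by CellTiter-Glo luminescence after ≥48 hr at 37 °C. Cells: DT40 Tdp1-/- stably carrying human TDP1, 400 per well, compound exposure in the absence of CPT (DMSO vehicle).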
% is scaled to controls: 0 for no effect and ±100 for the full control effect; potency is read from the fitted curve at half-maximal effect; tags tell the direction and shape of the fitted curve.

SMILES	Potency	activity change, negative = growth inhibition
NS(=O)(=O)c1ccc(NC(=O)c2ccc(S(=O)(=O)N3CCCCCC3)cc2)cc1	inconclusive [inhibitor, single point]	–
CCCOC1CCCN(C(=O)c2ccc(OC)c(OC3CCN(C(C)C)CC3)c2)C1 (stereo not drawn)	inactive	–
CCOC(=O)c1cc(S(=O)(=O)Nc2cccc(OC)c2)cn1C	inconclusive [inhibitor, partial curve]	–
O=C1c2ccccc2CCC12N=NCC2c1ccc(Br)cc1 (stereo not drawn)	inactive	–
COC(=O)c1cc(OC)c(OC)cc1NC(=O)C(C)Sc1ccc(C)cc1 (stereo not drawn)	inconclusive [inhibitor, single point]	–
Cc1ccc(O)c(-c2cc(-c3cccc(Br)c3)n[nH]2)c1	inconclusive [inhibitor, single point]	–
CCN1C(=O)CC(SC2CC(=O)N(CC)C2=O)C1=O (stereo not drawn)	active: 8.2 µM	–
C=C1/C(=C\C=C2/CCC[C@]3(C)C([C@H](C)CCCC(C)(C)O)CC[C@@H]23)C[C@@H](O)C[C@@H]1O (stereo partly drawn)	–	inactive: -21.3% [at 4.12 µM]
COc1ccc(N2CCN(S(=O)(=O)c3c(C)nc4scc(C)n4c3=O)CC2)cc1	inconclusive [inhibitor, single point]	–
O=C(CCC1CCCN(C(=O)c2ccc3c(c2)OCCO3)C1)NCc1ccccc1F (stereo not drawn)	inactive	–
CCc1ccc(NC(=O)CNS(=O)(=O)c2c(C)noc2C)cc1	inconclusive [inhibitor, full curve]	–
CCOCCCN1CN(Cc2ccccc2)CNC1=S	inactive	–
Cc1ccc2c(N)[nH]nc2n1	inactive	–
COc1ccc(-c2c(Sc3ccccc3)c3cc(-c4ccc5c(c4)OCO5)ccc3n2C)cc1	–	inconclusive: -30.4% [inhibitor]
COc1cc(/C=C2\SC(=S)N(CCC(=O)N3CCN(C)CC3)C2=O)cc(OC)c1OC	active: 14.6 µM	–
Cc1ccc(C)c(NC(=O)N2CC=C(c3c[nH]c4ccccc34)CC2)c1	inconclusive [inhibitor, single point]	–
Cc1cc(C)c(S(=O)(=O)N2CCCC2CNC(=O)c2ccc3c(c2)OCO3)c(C)c1 (stereo not drawn)	inconclusive [inhibitor, single point]	–
CCc1ccc(CN(C)C(=O)c2cc(COc3ccc(OC)cc3Cl)on2)nc1	active: 29.1 µM	–
CN(Cc1nc(Cc2ccccc2F)no1)[C@@H]1CS(=O)(=O)C[C@H]1O	inactive	–
CC1(C)CC(=O)C(C(O)c2cccc([N+](=O)[O-])c2)C(C)(C)N1 (stereo not drawn)	inactive	–
Cc1cccc(N(C)C(=O)C(Cc2ccccc2)NS(=O)(=O)c2cccc3nsnc23)c1 (stereo not drawn)	inconclusive [inhibitor, single point]	–
COC(=O)C(CCSC)NC(=O)Cn1ncc2c(=O)oc3ccccc3c21 (stereo not drawn)	inactive	–
COc1ccc(S(=O)(=O)N(C)C)cc1NC(=O)COC(=O)c1nn(C)c(=O)c2ccccc12	inactive	–
CCC(=O)NCCCCNC(=O)CC	inactive	–

SMILES	Potency	activity change, negative = growth inhibition
Cc1ccc(S(=O)(=O)N2CCN(c3nc(Nc4ccccc4O)nc4ccccc34)CC2)cc1	inconclusive [inhibitor, partial curve]	–
COCCNc1nc2cc(-c3ccccc3C)sc2c(=O)n1C	inconclusive [inhibitor, single point]	–
C=CCC[C@H](Cc1ccc(F)cc1)C(=O)OC[C@@H](Cc1c[nH]c2ccccc12)NC(=O)[C@H](CC=C)CC(=O)NCCO	active: 16.4 µM	–
COc1ccc(NC(=O)N[C@@H](CCSC)C(=O)O)cc1Cl	inactive	–
CC1=NNC(=O)C1Cc1ccccc1C (stereo not drawn)	inactive	–
Cc1ccc(CC(=O)Nc2cccc(C#N)c2)cc1	inactive	–
Cc1cc(OC(C)C(=O)NCc2ccccn2)c2c(C)c(C)c(=O)oc2c1 (stereo not drawn)	inactive	–
CCc1cc(C=NC2CCCCC2)c(O)s1	inconclusive [inhibitor, partial curve, poor fit]	–
CC(C)[C@H](NC(=O)[C@@H]1Cc2ccccc2CN1C(=O)OC(C)(C)C)C(=O)NCC1CCCO1 (stereo partly drawn)	inactive	–
COc1ccc(CNc2cc(-c3cccc(C#N)c3)ncn2)c(OC)c1	inconclusive [inhibitor, single point]	–
Cc1sc(NC(=O)CN(C(=O)c2ccccc2F)C2CCCC2)c(C(N)=O)c1C	active: 16.4 µM	–
Cc1ccc(C)c(OCC(=O)O/N=C(\N)c2ccccn2)c1	inactive	–
Cc1cc2nn(-c3cccc4ccccc34)nc2cc1N	active: 18.4 µM	–
CCCN(CCC)CCNC(=O)C1CCN(S(=O)(=O)c2cccc3nsnc23)CC1	inactive	–
CC(=O)c1ccc(NC(=O)C2CCN(S(=O)(=O)c3ccc4c(c3)CCCN4C(=O)C3CCC3)CC2)cc1	inconclusive [inhibitor, partial curve, poor fit]	–
Cc1ccc(NC(=O)CN(C)C(=O)CSc2nc(C)cc(C)n2)cc1	inconclusive [inhibitor, partial curve]	–
CCOc1ccc(-n2c(SCC(=O)Nc3ccccc3OC)nc3c(oc4ccccc43)c2=O)cc1	inconclusive [inhibitor, partial curve, poor fit]	–
CO[C@@H]1CN(C)C(=O)c2cc(NC(=O)NC3CCCCC3)ccc2OC[C@@H](C)N(CC2CCOCC2)C[C@@H]1C	inconclusive [inhibitor, partial curve]	–
CCc1ccc(C(C)NC(=O)c2ccncc2)cc1 (stereo not drawn)	inconclusive [inhibitor, single point]	–
CSc1nnc(NC(=O)c2cccc(S(=O)(=O)N3CCOCC3)c2)s1	inactive	–
COc1ccccc1OCC(=O)N(Cc1ccc(N(C)C)cc1)CC1CCCO1 (stereo not drawn)	active: 14.6 µM	–
CN(C)c1nc(=NCc2cccs2)ss1	active: 0.0291 µM	–
CC(C)=N/N=C1/NC(=O)C(c2ccc(Cl)cc2)S1 (stereo not drawn)	inconclusive [inhibitor, single point]	–
Cc1noc(NS(=O)(=O)c2ccc(N/C=C\C(=O)c3cccc4ccccc34)cc2)c1C	inconclusive [inhibitor, single point]	–
